Laboratory results from a collection of fitness landscapes (doi:10.1126/science.1257360).
The list shows a part of the results.

B1: PhoQ; a variant is named by its letters at X, in order, P23837 (parent)
chain: MKKLLRLFFPLSLRVRFLLATAAVVLVLSLAYGMVALIGYSVSFDKTTFRLLRGESNLFYTLAKWENNKLHVELPENIDKQSPTMTLIYDENGQLLWAQRDVPWLMKMIQPDWLKSNGFHEIEADVNDTSLLLSGDHSIQQQLQEVREDDDDAEMTHSVAVNVYPATSRMPKLTIVVVDTIPVELKSSYMVWSWFIYVLSANLLLVIPLLWVAAWWSLRPIEALAKEVRELEEHNRELLNPATTRELTSLVRNLNRLLKSERERYDKYRTTLTDLTHSLKTPLXXLQXXLRSLRSEKMSVSDAEPVMLEQISRISQQIGYYLHRASMRGGTLLSRELHPVAPLLDNLTSALNKVYQRKGVNISLDISPEISFVGEQNDFVEVMGNVLDNACKYCLEFVEISARQTDEHLYIVVEDDGPGIPLSKREVIFDRGQRVDTLRPGQGVGLAVAREITEQYEGKIVAGESMLGGARMEVIFGRQHSAPKDE

Variants of: B1
Test: enrichment ratio after two sorts for PhoP signalling (ratio (wild type AVST 3.29)); higher = more functional
Details: with PhoP (E. coli)

Question: With TLSI as the variant, how does the enrichment ratio read?
Answer: 18.6

Question: Which enrichment ratio does the source give for RMRA here?
Answer: ≤ 0.25

Question: How did the enrichment ratio turn out when DPWV was run?
Answer: ≤ 0.25

Question: For LQQC, which enrichment ratio is on record?
Answer: ≤ 0.25

Question: Which enrichment ratio does the source give for YNIE here?
Answer: ≤ 0.25

Question: NGAD was tested. Which enrichment ratio did it give?
Answer: ≤ 0.25

Question: For DSAY, which enrichment ratio is on record?
Answer: ≤ 0.25

Question: How did the enrichment ratio turn out when GFFE was run?
Answer: ≤ 0.25

Question: For RAYK, which enrichment ratio is on record?
Answer: ≤ 0.25

Question: How did the enrichment ratio turn out when RQFF was run?
Answer: ≤ 0.25

Question: For LESP, which enrichment ratio is on record?
Answer: ≤ 0.25

Question: How did the enrichment ratio turn out when AYLH was run?
Answer: ≤ 0.25

Question: With LTGL as the variant, how does the enrichment ratio read?
Answer: ≤ 0.25

Question: HGYT was tested. Which enrichment ratio did it give?
Answer: ≤ 0.25

Question: For PLMS, which enrichment ratio is on record?
Answer: ≤ 0.25

Question: With LIIA as the variant, how does the enrichment ratio read?
Answer: ≤ 0.25

Question: QYLG was tested. Which enrichment ratio did it give?
Answer: ≤ 0.25

Question: For WGAG, which enrichment ratio is on record?
Answer: ≤ 0.25

Question: Which enrichment ratio does the source give for LMDG here?
Answer: ≤ 0.25

Question: ACCG was tested. Which enrichment ratio did it give?
Answer: 25.4

Question: For DFMP, which enrichment ratio is on record?
Answer: ≤ 0.25

Question: With HQDC as the variant, how does the enrichment ratio read?
Answer: ≤ 0.25

Question: APVY was tested. Which enrichment ratio did it give?
Answer: ≤ 0.25

Question: HWDQ was tested. Which enrichment ratio did it give?
Answer: ≤ 0.25

Question: Which enrichment ratio does the source give for MTWC here?
Answer: ≤ 0.25

Question: How did the enrichment ratio turn out when AFNK was run?
Answer: ≤ 0.25

Question: Which enrichment ratio does the source give for LNHN here?
Answer: ≤ 0.25

Question: With MRGD as the variant, how does the enrichment ratio read?
Answer: ≤ 0.25

Question: With SYQF as the variant, how does the enrichment ratio read?
Answer: ≤ 0.25

Question: How did the enrichment ratio turn out when NEVM was run?
Answer: 7.03

Question: How did the enrichment ratio turn out when GSGH was run?
Answer: ≤ 0.25

Question: For NCLW, which enrichment ratio is on record?
Answer: ≤ 0.25

Question: How did the enrichment ratio turn out when FPNS was run?
Answer: ≤ 0.25

Question: For MPAM, which enrichment ratio is on record?
Answer: ≤ 0.25

Question: For IKPH, which enrichment ratio is on record?
Answer: ≤ 0.25

Question: VRRR was tested. Which enrichment ratio did it give?
Answer: ≤ 0.25

Question: For VFLY, which enrichment ratio is on record?
Answer: ≤ 0.25

Question: IVDD was tested. Which enrichment ratio did it give?
Answer: ≤ 0.25

Question: With EYGT as the variant, how does the enrichment ratio read?
Answer: ≤ 0.25

Question: How did the enrichment ratio turn out when IHYL was run?
Answer: ≤ 0.25

Question: With HAPK as the variant, how does the enrichment ratio read?
Answer: ≤ 0.25

Question: How did the enrichment ratio turn out when KAIH was run?
Answer: ≤ 0.25

Question: Which enrichment ratio does the source give for LVWD here?
Answer: ≤ 0.25

Question: How did the enrichment ratio turn out when PLSN was run?
Answer: ≤ 0.25

Question: How did the enrichment ratio turn out when SDMV was run?
Answer: 10.1

Question: How did the enrichment ratio turn out when THMM was run?
Answer: 17.6

Question: PTRW was tested. Which enrichment ratio did it give?
Answer: ≤ 0.25

Question: MATR was tested. Which enrichment ratio did it give?
Answer: ≤ 0.25

Question: Which enrichment ratio does the source give for TGYV here?
Answer: 9.15

Question: For AQEI, which enrichment ratio is on record?
Answer: ≤ 0.25

Question: With KFMI as the variant, how does the enrichment ratio read?
Answer: ≤ 0.25

Question: For MRQQ, which enrichment ratio is on record?
Answer: ≤ 0.25

Question: With WIKP as the variant, how does the enrichment ratio read?
Answer: ≤ 0.25

Question: For IPIC, which enrichment ratio is on record?
Answer: ≤ 0.25

Question: Which enrichment ratio does the source give for MTFF here?
Answer: 5.57

Question: With NMCL as the variant, how does the enrichment ratio read?
Answer: ≤ 0.25

Question: With KPFH as the variant, how does the enrichment ratio read?
Answer: ≤ 0.25

Question: How did the enrichment ratio turn out when GSIP was run?
Answer: ≤ 0.25

Question: With FTTQ as the variant, how does the enrichment ratio read?
Answer: ≤ 0.25

Question: QRDL was tested. Which enrichment ratio did it give?
Answer: ≤ 0.25

Question: FHMQ was tested. Which enrichment ratio did it give?
Answer: ≤ 0.25

Question: For ATCH, which enrichment ratio is on record?
Answer: ≤ 0.25

Question: Which enrichment ratio does the source give for RLQG here?
Answer: ≤ 0.25

Question: For KNPH, which enrichment ratio is on record?
Answer: ≤ 0.25

Question: Which enrichment ratio does the source give for RYMA here?
Answer: ≤ 0.25

Question: For TRML, which enrichment ratio is on record?
Answer: 4.97

Question: How did the enrichment ratio turn out when RFYL was run?
Answer: 0.349

Question: With HLYW as the variant, how does the enrichment ratio read?
Answer: ≤ 0.25

Question: YFRI was tested. Which enrichment ratio did it give?
Answer: ≤ 0.25

Question: With AYSQ as the variant, how does the enrichment ratio read?
Answer: ≤ 0.25

Question: How did the enrichment ratio turn out when VPMW was run?
Answer: ≤ 0.25

Question: RCSQ was tested. Which enrichment ratio did it give?
Answer: ≤ 0.25

Question: For FAAM, which enrichment ratio is on record?
Answer: ≤ 0.25

Question: With SNWP as the variant, how does the enrichment ratio read?
Answer: ≤ 0.25

Question: For KQYP, which enrichment ratio is on record?
Answer: ≤ 0.25

Question: GRLK was tested. Which enrichment ratio did it give?
Answer: ≤ 0.25

Question: How did the enrichment ratio turn out when SVFD was run?
Answer: ≤ 0.25

Question: With AKMY as the variant, how does the enrichment ratio read?
Answer: ≤ 0.25

Question: With GLPR as the variant, how does the enrichment ratio read?
Answer: ≤ 0.25

Question: For QDGM, which enrichment ratio is on record?
Answer: ≤ 0.25

Question: For RCTC, which enrichment ratio is on record?
Answer: ≤ 0.25

Question: How did the enrichment ratio turn out when FVME was run?
Answer: ≤ 0.25

Question: How did the enrichment ratio turn out when ELRA was run?
Answer: ≤ 0.25

Question: How did the enrichment ratio turn out when VYGW was run?
Answer: ≤ 0.25

Question: With LDGD as the variant, how does the enrichment ratio read?
Answer: ≤ 0.25

Question: Which enrichment ratio does the source give for NFDK here?
Answer: ≤ 0.25

Question: For NHND, which enrichment ratio is on record?
Answer: ≤ 0.25

Question: For WAWC, which enrichment ratio is on record?
Answer: ≤ 0.25

Question: With QMMK as the variant, how does the enrichment ratio read?
Answer: ≤ 0.25

Question: For EKLK, which enrichment ratio is on record?
Answer: ≤ 0.25

Question: How did the enrichment ratio turn out when WDEH was run?
Answer: ≤ 0.25

Question: How did the enrichment ratio turn out when LNHH was run?
Answer: ≤ 0.25

Question: Which enrichment ratio does the source give for VNQD here?
Answer: ≤ 0.25

Question: How did the enrichment ratio turn out when ICFR was run?
Answer: ≤ 0.25

Question: FACA was tested. Which enrichment ratio did it give?
Answer: ≤ 0.25

Question: How did the enrichment ratio turn out when ATWC was run?
Answer: ≤ 0.25

Question: Which enrichment ratio does the source give for GHFP here?
Answer: ≤ 0.25
